Experimental data published in PMC4336329 (PLoS ONE, 2015).
About 14,000 (4.5%) of roughly 310,000 compounds showed an effect of 50% or more. The effect is printed as a negative number. The list shows a part of the results.

Target: human ether-à-go-go-related gene (hERG) potassium channel (human, UniProt Q12809)
Test: primary screen, population patch clamp on CHO cells stably expressing hERG
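Note: peak tail current of the secondary pulse compared with the same well before compound.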

Sequence of human ether-à-go-go-related gene (hERG) potassium channel (Q12809 whole entry, looked up): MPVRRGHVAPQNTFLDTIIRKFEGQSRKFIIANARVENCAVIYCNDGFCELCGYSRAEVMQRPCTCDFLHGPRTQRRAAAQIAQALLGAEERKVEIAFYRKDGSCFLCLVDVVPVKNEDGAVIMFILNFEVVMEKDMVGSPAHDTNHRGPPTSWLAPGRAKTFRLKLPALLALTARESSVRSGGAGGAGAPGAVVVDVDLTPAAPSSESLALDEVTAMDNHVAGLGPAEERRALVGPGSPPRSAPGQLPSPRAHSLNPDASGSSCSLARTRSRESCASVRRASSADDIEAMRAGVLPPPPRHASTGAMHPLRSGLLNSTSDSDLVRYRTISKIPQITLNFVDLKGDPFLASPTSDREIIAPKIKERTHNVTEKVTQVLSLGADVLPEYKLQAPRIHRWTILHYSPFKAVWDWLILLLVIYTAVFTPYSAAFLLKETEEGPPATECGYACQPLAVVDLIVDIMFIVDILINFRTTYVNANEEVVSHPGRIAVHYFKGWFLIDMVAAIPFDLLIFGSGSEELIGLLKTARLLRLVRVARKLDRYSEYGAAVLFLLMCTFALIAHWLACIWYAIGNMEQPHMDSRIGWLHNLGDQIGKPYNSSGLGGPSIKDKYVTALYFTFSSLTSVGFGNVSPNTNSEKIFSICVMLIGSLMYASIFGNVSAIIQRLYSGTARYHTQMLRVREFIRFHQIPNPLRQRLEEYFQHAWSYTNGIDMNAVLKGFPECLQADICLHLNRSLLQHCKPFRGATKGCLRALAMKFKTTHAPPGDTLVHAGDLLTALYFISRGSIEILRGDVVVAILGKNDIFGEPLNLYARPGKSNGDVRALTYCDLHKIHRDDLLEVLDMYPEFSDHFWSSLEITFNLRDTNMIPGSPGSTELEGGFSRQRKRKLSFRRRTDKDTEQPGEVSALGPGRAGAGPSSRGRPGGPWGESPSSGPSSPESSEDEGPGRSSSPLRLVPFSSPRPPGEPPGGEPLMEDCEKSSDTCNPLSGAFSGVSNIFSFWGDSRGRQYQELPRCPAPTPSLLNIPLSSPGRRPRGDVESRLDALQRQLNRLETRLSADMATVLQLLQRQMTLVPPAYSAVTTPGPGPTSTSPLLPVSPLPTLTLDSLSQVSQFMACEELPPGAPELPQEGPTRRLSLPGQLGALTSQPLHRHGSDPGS

Point of comparison: `COc1cccc(Oc2ccc(C(F)(F)F)cc2NC(=O)C2=COCCO2)c1`, “hERG current change (%, negative = inhibition) at 10uM” value -1.2%. Against it:
- COc1ccc(-c2noc(CCCOc3ccccc3)n2)cc1OC — lower, -9.71%
- CCCc1cc2nnc(SCC(=O)N(C)C3CCCCC3)n2c(N)n1 — lower, -21.9%
- Cc1cc(=O)n2nc(N3CCC(C(=O)N4CCN(c5ccccc5)CC4)CC3)sc2n1 — lower, -11.9%
- O=C(O)c1cccc(N2C(=O)c3cc4cccc(Br)c4cc3C2=O)c1 — higher, 18.4%
- CCN(CC)S(=O)(=O)c1ccc(Cl)c(C(=O)Nc2cc(C)nn2-c2ccccc2)c1 — lower, -26.3%
- Clc1ccccc1CSc1nnc(Cn2cnc3ccccc32)n1-c1ccccc1 — lower, -42.7%
- COC(=O)NCC(c1cccnc1)N1CCN(c2ccccc2OC)CC1 (stereo not shown) — higher, 6.42%
- CC(=O)Nc1cc(C(=O)OCC(=O)c2ccc(C)cc2)ccc1C — higher, 3.03%
- Cc1nn(C)cc1C(C)NC(=O)c1cc(COc2c(F)cccc2F)on1 (stereo not shown) — higher, 13.2%
- CCCOc1ccc(-c2nc3c(c(=O)[nH]c(=O)n3Cc3ccccc3)n2CCO)cc1OCC — lower, -5.86%
- Cc1nnc(SCCC#N)n(CCC#N)c1=O — lower, -1.84%
- COc1ccc(CNC(=O)C(c2ccco2)N(C(=O)Cc2cccs2)c2cccnc2)cc1 (stereo not shown) — lower, -28.9%
- CCn1ncc(/C=C/C(=O)C2CC2)c1C — higher, 31.7%
- O=C(Nc1ccc2ncccc2c1)c1cccc(Br)c1 — higher, 9.51%
- COc1cccc(NC(=O)Cn2c3ccccc3c3nc4n(c(=O)c32)CCCS4)c1 — higher, 5.3%
- NCCN1CCN(S(=O)(=O)c2ccc([N+](=O)[O-])cc2)C=C1c1ccc(Cl)cc1 — lower, -42.6%
- C/C(=N\Nc1nc2ccccc2[nH]1)c1ccc(N2CCOCC2)cc1 — lower, -15.2%
- NC(=O)COc1ccc(/C=N\NC(=O)CC(=O)NCCc2ccccc2)cc1 — higher, 17.9%
- O=c1c2ccccc2nnn1CSc1nc2ccccc2[nH]1 — lower, -19.4%
- O=C(N/C(=C\c1ccco1)C(=O)N1CCOCC1)c1ccccc1Cl — higher, 12.6%
- Cc1ccc(Nc2nnc(SCC(=O)Nc3cccc(S(=O)(=O)NC4=NCCCCC4)c3)s2)cc1 — higher, 3.63%
- CCOC(=O)c1c(C)[nH]c(=S)c(C#N)c1-c1ccccc1 — higher, 21.1%
- Cc1ccsc1/C=N/n1c(=S)[nH]nc(C)c1=O — higher, 6.22%
- CCCCc1ccc(S(=O)(=O)Nc2ccc(C)c(NS(C)(=O)=O)c2)cc1 — higher, 6.39%
- CCCn1c(N)c(C(=O)CSc2nnc3n2CCCCC3)c(=O)[nH]c1=O — lower, -5.1%
- CCCCC(=O)NCCc1ccc(S(N)(=O)=O)cc1 — higher, 9.01%
- C(=N\N1CCN(c2ccccn2)CC1)/c1ccccn1 — higher, 13.5%
- Cc1nn(-c2ccc(C(=O)O)cc2)c(C)c1Cl — higher, 10.8%
- Cc1ccc(S(=O)(=O)N2CCC(C(=O)N3CCC[C@H]3C(=O)NCc3ccccc3)CC2)cc1 — lower, -10.7%
- COc1ccc2c(c1)[C@H]1[C@H](CO2)[C@H](c2ccccc2)[C@]2(C)C(=O)N(CC3CCCO3)CC(=O)N12 (stereo partly shown) — lower, -2.94%
- Cc1ccccc1NC(=S)N1CCN(Cc2ccc3c(c2)OCO3)CC1 — lower, -10.3%
- Cc1ccc(C(=O)NCCCNc2ccccc2[N+](=O)[O-])cc1 — lower, -48.3%
- CCOC(=O)C1=C(C)Nc2ccccc2N=C1NC(=O)Cc1ccc(Br)cc1 — higher, 9.19%
- Cl.NCCc1nnc(SCC(N)=O)o1 — higher, 8.58%
- COC(=O)c1cn(NC(=O)CC2CCCCC2)c(=O)c2ccccc12 — lower, -10.6%
- COCCn1c(=O)[nH]c2cc(C(=O)N3CCN(c4ccc(Cl)cc4)CC3)ccc2c1=O — higher, 10.5%
- CN1C(=O)/C(=C2\SC(N3CCCCCC3)=NC2=O)c2ccccc21 — lower, -25.1%
- Cc1cc(C)c(NC(=O)CSCc2nc3sc(C)c(C)c3c(=O)[nH]2)c(Cl)c1 — lower, -5.07%
- Cn1ncc2c(NNC(=O)c3ccc(O)cc3)ncnc21 — higher, 18.7%
- CC(C)C(OC(=O)c1cc2c(s1)CCCCC2)C(=O)NC(N)=O (stereo not shown) — higher, 0.693%
- CCc1c(C)sc(NC(=O)CC#N)c1C#N — higher, 11.8%
- COc1cc(/C=C2/C(=N)N3C(SC)=NSC3=NC2=O)ccc1OC(=O)c1ccco1 — higher, 14.1%
- COc1ccc(N2C(=O)CC(Sc3ccccc3C(=O)O)C2=O)c([N+](=O)[O-])c1 (stereo not shown) — higher, 22.3%
- Cc1ccc(Cn2ccc(NC(=O)c3nn(C)cc3[N+](=O)[O-])n2)cc1 — higher, 4.67%
- CC1CCCN(c2nc(-c3cccnc3)nc3scc(-c4ccccc4)c23)C1 (stereo not shown) — higher, 11.6%
- CCCn1cc(SCC(=O)Nc2nnc(C)s2)c2ccccc21 — higher, 13.8%
- CC(=O)NC12CC3CC(C1)CC(C(=O)Nc1nc4ccc(S(C)(=O)=O)cc4s1)(C3)C2 — higher, -1.14%
- O=C(O)[C@H]1CCCC[C@H]1C(=O)NCCNC(=O)[C@@H]1CCCC[C@@H]1C(=O)O — higher, 11.6%
- Cc1ccc(S[C@@H](CCN2CC[C@H](O)CCC2=O)c2ccccc2)cc1 — lower, -12.7%
- CCN(CCO)c1ncnc2c1sc1nc(CC(C)C)c3c(c12)CC(C)(C)OC3 — higher, 19.5%
- CCOC(=O)C1CCN(C(=O)COc2ccc(Br)cc2Br)CC1 — lower, -51.8%
- CCOC(=O)CNc1ccc(C(=O)OCC)cc1[N+](=O)[O-] — higher, -0.367%
- COc1ccccc1NC(=O)c1cnc2c(-c3ccccc3)c(C)nn2c1C — higher, 3.15%
- O=C(O)COc1ccc2nsnc2c1Cl — higher, 4.45%
